This note sets out measurements from a collection of fitness landscapes (doi:10.1038/s41467-024-54723-y).

Whole data set: some 18,000 sequences, median “TetR repression strength (sort-seq, GFP reporter)” near 0.23, cut for the highest 2% near 0.68. This is one part of the list.

UniProt P04483, sequence (P04483 whole entry): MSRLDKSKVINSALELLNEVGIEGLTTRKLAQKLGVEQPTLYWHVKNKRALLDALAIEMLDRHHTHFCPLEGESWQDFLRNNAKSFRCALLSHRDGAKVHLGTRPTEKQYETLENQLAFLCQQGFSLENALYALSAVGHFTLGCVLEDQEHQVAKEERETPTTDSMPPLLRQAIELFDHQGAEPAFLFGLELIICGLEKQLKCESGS

The assay concerns the target TetR (class B, Tn10) (UniProt P04483). Description: TetR repression strength (sort-seq, GFP reporter) (relative to tetO2 = 1); higher = stronger repression. Particulars: E. coli. Summed up:
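In LB with 50 µg/mL chloramphenicol, E. coli SIG10-MAX holding a low-copy library with eight randomized operator positions between a constitutive promoter and sfGFP, plus constitutive TetR, grew for 5 h at 37 °C. FACS then sorted 10^6 cells into 13 fluorescence bins for Illumina sequencing of each bin. Repression strength equals the top bin index plus one less the read-weighted mean bin, normalized to the unaltered operator. Values from three independent transformations were averaged when reads were ≥30 in every replicate and the CV was ≤0.5.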
Turning to TCCCGTCAAGTTAGGGAGA, the TetR repression strength worked out at 0.195. Turning to TCCCGGTTAGTCTTCGAGA, the TetR repression strength amounted to 0.18. Consider TCCCTGACAGTTTCGGAGA, for which the TetR repression strength was 0.226. TCCCAAGTAGTGAACGAGA came in with a TetR repression strength of 0.112.

TCCCTGTGAGTCTATGAGA: the TetR repression strength stood at 0. Under TCCCGGGGAGTTGACGAGA stands 0.153; under TCCCTTGAAGTCAATGAGA, 0.369.

In the case of TCCCTATGAGTTCCAGAGA, the TetR repression strength worked out at 1.01. With TCCCCCCAAGTGTAGGAGA, the TetR repression strength stood at 0.207. Regarding TCCCAAACAGTTTGTGAGA, the TetR repression strength was 0.0981. The value for TCCCGCGCAGTAGGGGAGA was 0.233; that for TCCCATTTAGTCTCCGAGA was 0.505; that for TCCCGGAAAGTCGTAGAGA was 0.0816. The sequence TCCCCACCAGTGTCAGAGA had a TetR repression strength of 0.334. The value for TCCCGGGTAGTAGAGGAGA was 0.097; that for TCCCCGGTAGTATGCGAGA was 0.5. Regarding TCCCTGTCAGTGCATGAGA, the TetR repression strength was 0.361. Sequence TCCCTGACAGTGTCAGAGA displayed a TetR repression strength of 0.263. The sequence TCCCGTGGAGTAGGGGAGA gave a TetR repression strength of 0.191. In turn, TCCCTGTCAGTCGCCGAGA came in with a TetR repression strength of 0.379. The value for TCCCTTAGAGTCTATGAGA was 0.159; that for TCCCTGGGAGTGTTGGAGA was 0.288; that for TCCCGTCTAGTACTCGAGA was 0.262. TCCCAAGGAGTTTGAGAGA gave a TetR repression strength of 0.205.

The sequence TCCCGGCAAGTTAGAGAGA registered a TetR repression strength of 0.43. Sequence TCCCTTCAAGTAATCGAGA had a TetR repression strength of 0.624. As for TCCCGGTAAGTCAAGGAGA, the TetR repression strength came to 0.397.

Sequence TCCCTAAGAGTAGGGGAGA showed a TetR repression strength of 0.141. Take TCCCTAAGAGTGGTGGAGA: the TetR repression strength amounted to 0.129. TCCCGCTGAGTTATGGAGA came in with a TetR repression strength of 0.241. As to TCCCGGTCAGTGCGCGAGA, the TetR repression strength was determined as 0.364. TCCCATGAAGTGGTGGAGA: the TetR repression strength is 0.0823. TCCCTCGCAGTTTGTGAGA registered a TetR repression strength of 0.291. Under TCCCGGCAAGTGCCAGAGA stands 0.242. As for TCCCCACGAGTTGGCGAGA, the TetR repression strength was determined as 0.105. The sequence TCCCTGGGAGTGGTCGAGA showed a TetR repression strength of 0.303. In turn, TCCCATATAGTTCGTGAGA registered a TetR repression strength of 0.113.

Take TCCCAGTGAGTATAAGAGA: the TetR repression strength is 0.0512. With TCCCCGCTAGTTAAGGAGA, the TetR repression strength came to 0.755. TCCCTGGGAGTTTAAGAGA showed a TetR repression strength of 0.173. TCCCGAACAGTGTTAGAGA showed a TetR repression strength of 0.522.

TCCCGGCAAGTTGGTGAGA: the TetR repression strength was determined as 0.189. On to TCCCATCCAGTCAGTGAGA, for which the TetR repression strength amounted to 0.188. With TCCCGTAAAGTCGAGGAGA, the TetR repression strength is 0.0148. The value for TCCCACCGAGTGATCGAGA was 0.405. Under TCCCAGACAGTATCGGAGA stands 0.307. Under TCCCACTTAGTGGTAGAGA stands 0.405. The sequence TCCCCTTTAGTGTCGGAGA showed a TetR repression strength of 0.218.

The sequence TCCCCAGCAGTGAGGGAGA showed a TetR repression strength of 0.0743.

Turning to TCCCATATAGTGAGGGAGA, the TetR repression strength turned out to be 0.103. Under TCCCAGTAAGTGGGGGAGA stands 0.196. The value for TCCCTGCTAGTCGAGGAGA was 0.28; that for TCCCGAGGAGTGTATGAGA was 0.283. The value for TCCCTTCAAGTCGCAGAGA was 0.26; that for TCCCAGGAAGTGTAGGAGA was 0.144. Turning to TCCCTCAGAGTGTGTGAGA, the TetR repression strength is 0.0134. Under TCCCGTCGAGTGCGCGAGA stands 0.193; under TCCCGGGGAGTGCTTGAGA, 0.229; under TCCCGTTGAGTCTGCGAGA, 0.387. TCCCCCTGAGTCAGAGAGA displayed a TetR repression strength of 0.00715. On to TCCCGCTGAGTGAGCGAGA, for which the TetR repression strength amounted to 0.305. The sequence TCCCACCAAGTGGTAGAGA displayed a TetR repression strength of 0.272. Under TCCCGTGGAGTCGCGGAGA stands 0.168. The sequence TCCCTCTTAGTGGCAGAGA displayed a TetR repression strength of 0.291. Under TCCCACTAAGTCTGTGAGA stands 0.518.

As for TCCCTTGGAGTGGGTGAGA, the TetR repression strength was determined as 0.207. TCCCGGCGAGTTTGTGAGA showed a TetR repression strength of 0.151. The value for TCCCCCGTAGTCGGTGAGA was 0.324; that for TCCCTGTTAGTACTTGAGA was 0; that for TCCCGGTGAGTCAGTGAGA was 0.205.

On to TCCCAGGAAGTGAGTGAGA, for which the TetR repression strength is 0.141. Under TCCCGTGCAGTCTTGGAGA stands 0.308; under TCCCTGCAAGTGGGGGAGA, 0.171. Take TCCCCTGCAGTATTGGAGA: the TetR repression strength was 0.294. TCCCTCGCAGTGAAAGAGA gave a TetR repression strength of 0.32.

TCCCTCTCAGTAGGGGAGA came in with a TetR repression strength of 0.133.

Regarding TCCCATTTAGTTTGCGAGA, the TetR repression strength was 0.272.

As to TCCCAACGAGTGGAGGAGA, the TetR repression strength worked out at 0.0706. TCCCGGAGAGTTTGTGAGA: the TetR repression strength is 0.193. In the case of TCCCTTACAGTCGAGGAGA, the TetR repression strength stood at 0.0813. The value for TCCCCAGAAGTGTATGAGA was 0.0415; that for TCCCATTAAGTCGCGGAGA was 0.517. TCCCGGGGAGTGTCGGAGA showed a TetR repression strength of 0.265.

As for TCCCTGCAAGTAGATGAGA, the TetR repression strength came to 0.221. TCCCGCGGAGTGTAAGAGA: the TetR repression strength came out at 0.256. The value for TCCCCAGTAGTGTCCGAGA was 0.268. The value for TCCCCCCCAGTCGATGAGA was 0.409; that for TCCCAGCGAGTAAGAGAGA was 0.0795; that for TCCCATACAGTTCGTGAGA was 0.0581. Under TCCCTTCCAGTCGAGGAGA stands 0.219; under TCCCCACAAGTGCAGGAGA, 0.048; under TCCCCGGTAGTGTCCGAGA, 0.25. TCCCCCCCAGTGCCCGAGA registered a TetR repression strength of 0.446. Under TCCCTTTGAGTTGTCGAGA stands 0.35. Sequence TCCCAACGAGTGTCCGAGA showed a TetR repression strength of 0.258. Sequence TCCCGAGAAGTGGTCGAGA gave a TetR repression strength of 0.54. Sequence TCCCTTAAAGTATGTGAGA registered a TetR repression strength of 0.304. Take TCCCGTAAAGTGTAGGAGA: the TetR repression strength turned out to be 0.275. Under TCCCGTGCAGTGAAGGAGA stands 0.12; under TCCCGGCGAGTCGACGAGA, 0.228; under TCCCGATCAGTACCGGAGA, 0.203. TCCCGAGGAGTCGAGGAGA had a TetR repression strength of 0.171.
